The record followed here is publication PMC11603075 (Communications Biology, 2024).

For one assay, the system named is KDM4C. The assay can be described thus: MALDI–TOF MS demethylation/+16 Da assay, KDM4C. Type of assay: biochemical, human. The settings on record: 60 min. An excerpt: Fig. 2 Histone H2a fragments are KDM5 and KDM4 substrates. […] See Supplementary Table 6 and Supplementary Fig. 2 for assay conditions and quantification, respectively. […] 0-minute MS spectrum in black, 60/90-minute spectrum in red.
MS-based screening assays with peptides and calf thymus histones were as reported; see Supplementary Table 6 for conditions. Time course assays were based on reported procedures. In brief, equal volumes of the enzyme and substrate solutions were combined to initiate the reaction; 10 µL of 2% (v/v) formic acid (HCOOH) in ddH2O or 100% methanol was added to 10 µL of the reaction mixture to quench reactions at different time points. Unless otherwise stated, time course assays were carried out in triplicate. In some cases, LC–MS was used instead of MALDI-TOF MS to avoid a MALDI matrix induced artefact with the hydroxylated product (Supplementary Fig. 16). […]
Supplementary Figure 2 Histone H2a peptide fragments are substrates of KDM4s and KDM5s.
2 for representative corresponding MALDI–TOF MS traces. Bar graphs comparing % product format ion (+16 Da and demethylation) of H2a(1–20)R3me2a by (a) K DM5 A–D (after 90 minutes) and (b) KDM4A–E ( a ft er 60 minutes), analysed by MALDI– TOF MS. n = (a) 2, (b) 3 (independent assays). See Supplementary Table 6 for assay condit ions. See Figure S13 A 1 for a positive control.
(also on this page, place not known: formation KDM5A–D (after MALDI–TOF conditions. Figure S13A1 KDM4A KDM4B KDM4C KDM4D KDM4E 80% product formation KDM5A KDM5B KDM5C KDM5D % product formation) […]
[ E nz ym e] [Peptide] [2OG] [Ascorbate] [(NH4)2F e(S O4)2] [TCEP] Buffer pH7.5 Enzyme Cognate substrate (mM) (mM) (mM) (mM) (mM) (mM) [HE PE S]
Supplementary Table 6 Summary of MS assay conditions for substrate screening. These conditions enabled efficient turnover of established substrates. Reactions were carried out at 37 °C unless otherwise st ated. […]

In the next assay the target is T1, KDM4E (Homo sapiens, UniProt B2RXH2).
T1 construct: KDM4E1–337; made in house; host or cells: E. coli
T1 sequence (B2RXH2 1-337): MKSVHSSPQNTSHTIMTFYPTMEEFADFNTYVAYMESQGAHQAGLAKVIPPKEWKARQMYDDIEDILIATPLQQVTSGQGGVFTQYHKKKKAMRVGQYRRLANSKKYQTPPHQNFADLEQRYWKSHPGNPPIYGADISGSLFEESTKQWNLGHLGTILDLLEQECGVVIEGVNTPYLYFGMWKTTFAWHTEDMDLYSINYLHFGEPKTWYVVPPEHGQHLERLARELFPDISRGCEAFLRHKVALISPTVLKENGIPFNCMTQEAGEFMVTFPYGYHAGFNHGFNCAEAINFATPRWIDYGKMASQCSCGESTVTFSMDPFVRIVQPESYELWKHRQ
The experiment in a line: FDH-coupled demethylation assay, Michaelis–Menten kinetics. Type of assay: biochemical. The procedure: The RDM activity of KDM4E with H2a(1–20)R3me2a was compared with demethylation of H3(1–21)R2me2a using a formaldehyde dehydrogenase (FDH) assay[23],[24]. KDM4E catalysed demethylation of H2a R3me2a was less efficient than H3 R2me2a by approximately three-fold under the same conditions (kcat/KM 0.89 hr^−1 µM^−1 for H2a(1–20)R3me2a and 2.58 hr^−1 µM^−1 for H3(1–21)R2me2a).
When LC–MS-based assays were used, time course assays were carried out as described; product formation (%) was plotted against time (s) using GraphPad Prism5 version 5.04. The gradient of each reaction was calculated by fitting a line of linear regression to the first-order region. The resultant slope was used to calculate reaction rate in µM hr^−1. The rate versus peptide concentration (µM) was plotted and the KM, kcat, and Vmax values determined by fitting the Michaelis–Menten equation using GraphPad Prism5 version 5.04. When a formaldehyde dehydrogenase coupled (FDH) based enzyme activity assay was used, analyses were carried out as above and as previously detailed; linear regression was fitted to the first order region of a graph of relative fluorescent units (RFU) vs time (s).
Supplementary Figure 3 KDM4E catalysed H2a(1–20) hydroxylation and H3(1–21)R2me2a demethylation. Michaelis–Menten plots monitoring: ( a) hydroxylation of H2a(1–20) measured using LC– MS (R2 value obtained was 0.5 indicating poor goodness of fit, likely due to limited data at low substrate concentrations due to signal:noise limitations), (b) demethylation of H2a(1–20)R3me2a, and (c) demethylation of H3(1–21)R2me2a measured using the FDH-coupled demethylation assay. (d) Kinetic parameters obtained in (a –c). Error bars: SEM, n = 3 assay repeats; each assay replicate has n = 3 independent assays. Conditions: LC–MS assay: 2 µM KDM4E, varied concentrations of peptide, 10 µM (NH4)2Fe(SO4)2, 100 µM sodium L-ascorbate, 200 µM 2OG, and 50 mM HEPES pH 7.5, FDH assay: 2 µM […]
50 mM HEPES pH 7.5, 0.01% Tween, 500 µM β-NAD, 1 µM FDH.
(1 picture or pasted object on this page, not shown here)

Turning to “Ac - SGR [ me 2a ] GKQ GGKAR AKAKT R SSR [H2a(1–20)R3me2a, H2a(1–20)R3me2a without a biotin tag]”, the “+16 Da (% product formation)” value in the assay on KDM4C (replicate 1), with KDM4C (replicate 2) and in the assay on KDM4C (replicate 3) was 0% in each case. Also, the results for the “demethylation (% product formation)” value with KDM4C (replicate 1), in the assay on KDM4C (replicate 2) and in the assay with KDM4C (replicate 3) were 12.3348%, 13.2148% and 16.3411%, respectively. In addition, the RDM activity entry in the assay with KDM4C (KDM4C catalytic domain) is given as “RDM activity was also observed”. The “kcat/KM (demethylation)” value at KDM4E (FDH assay, 2 µM KDM4E, 200 µM 2OG, pH 7.5, n = 3 assay repeats) amounted to 247 M⁻¹ s⁻¹. The “affinity relative to H3(1–21)R2me2a (fold higher)” value at KDM4E (from KM) is reported as “four”. Further, the “kcat/KM relative to KDM substrate H3 K9me3 (fold less)” value at KDM4E (same FDH assay, H3 K9me3 from ref 7) stood at 39 fold. Further, the “demethylation efficiency relative to H3 R2me2a (fold less efficient)” value at KDM4E (same conditions) was “approximately three”.
